Laboratory results as given in the antibiotic and cytotoxicity screens of Wong et al. (2023).
This is one part of the list.

test system: HepG2; test: cytotoxicity call (relative viability < 0.9); conditions: 10 µM

SMILES | cytotoxicity call
C[C@@H]1CCCCO[C@@H](CN(C)C(=O)Nc2cccc3ccccc23)[C@H](C)CN([C@H](C)CO)C(=O)c2cc(NC(=O)Nc3ccc(F)cc3)ccc2O1 | inactive
Cc1noc(C)c1NC(=O)Nc1ccc2c(c1)C(=O)N([C@@H](C)CO)C[C@H](C)[C@@H](CN(C)Cc1ccc(Cl)c(Cl)c1)OCCCC[C@@H](C)O2 | active
C[C@H]1CC/C=C\[C@H]2O[C@@]34C=CCN(Cn5nnc6ccccc65)C(=O)[C@H]3N(CCCCCCO)C(=O)[C@@H]4[C@@H]2C(=O)O1 | inactive
C[C@@H]1CN([C@H](C)CO)C(=O)c2cc(NC(=O)CCCN(C)C)ccc2O[C@H]1CN(C)Cc1ccc2c(c1)OCO2 | inactive
C[C@@H]1CN([C@H](C)CO)C(=O)c2cccc(NS(C)(=O)=O)c2O[C@H]1CN(C)Cc1ccc2c(c1)OCO2 | inactive
COc1ccc(CN(C)C[C@@H]2OCCCC[C@H](C)Oc3ccc(NC(=O)CCC(F)(F)F)cc3C(=O)N([C@H](C)CO)C[C@@H]2C)cc1 | inactive
CS(=O)(=O)c1ccc(C(O)C(CF)NC(=O)C(Cl)Cl)cc1 (stereo not drawn) | inactive
CCc1nc2ccc(C(=O)N3CCN(S(=O)(=O)CC)CC3)cn2c1N(C=O)Cc1ccc(OC)cc1 | inactive
Cc1ccc(S(=O)(=O)N(C)C[C@H]2Oc3ccc(NC(=O)Nc4ccc(C(F)(F)F)cc4)cc3CC(=O)N([C@H](C)CO)C[C@H]2C)cc1 | active
C[C@H]1CCCCO[C@H](CN(C)Cc2ccc(C(=O)O)cc2)[C@@H](C)CN([C@@H](C)CO)C(=O)c2cc(NS(=O)(=O)c3ccccc3)ccc2O1 | inactive
CCS(=O)(=O)N1Cc2nccn2C[C@H](Cn2ncccc2=O)C1 | inactive
C[C@H](CO)N1C[C@H](C)[C@@H](CN(C)Cc2ccc(Oc3ccccc3)cc2)Oc2c(NC(=O)c3nc4ccccc4s3)cccc2C1=O | active
Nc1ccc(C(=O)N2CCOCC2)cc1 | inactive
CN(C)CC(=O)N1CCOC[C@@H]1c1nccc(N2CCOCC2)n1 | inactive
C[C@H]1CN([C@@H](C)CO)C(=O)CCCn2cc(nn2)CO[C@H]1CN(C)C(=O)Nc1ccc(N2CCCCC2)cc1 | inactive
CO[C@@H](CN(C)S(=O)(=O)c1ccc(F)cc1)[C@H](C)CN([C@H](C)CO)S(=O)(=O)c1cccc(Cl)c1 | inactive
Clc1ccc2c(c1)C(N1CCNCC1)=Nc1ccccc1O2 | active

SMILES | cytotoxicity call
Cc1ccc(S(=O)(=O)N(C)C[C@@H]2Oc3ccc(NS(=O)(=O)c4ccccc4)cc3CC(=O)N([C@@H](C)CO)C[C@@H]2C)cc1 | inactive
CC(C)NC(=O)N(C)C[C@H]1Oc2cc(C#Cc3ccc(F)cc3)ccc2S(=O)(=O)N([C@H](C)CO)C[C@@H]1C | inactive
COc1ccc(NC(=O)N(C)C[C@@H]2Oc3c(NC(=O)c4cnccn4)cccc3C(=O)N([C@@H](C)CO)C[C@H]2C)cc1 | inactive
O=C(O)c1csc2ccccc12 | inactive
Cc1cccc(C)c1NC(=O)[C@@H](C)N | inactive
CC(C)NC(=O)Nc1ccc2c(c1)C(=O)N(C)[C@H]1CC[C@@H](CC(=O)NCc3ccc(F)cc3)O[C@@H]1CO2 | inactive
CCOC(=O)c1nonc1N | inactive
CC(C)NC(=O)N(C)C[C@@H]1Oc2ccc(NC(=O)Cn3cnnn3)cc2C(=O)N([C@@H](C)CO)C[C@H]1C | inactive
C[C@H](CO)N1C[C@H](C)[C@H](CN(C)Cc2ccc(Cl)c(Cl)c2)OCc2ccccc2-c2c(n(C)c3ccccc23)C1=O | active
C[C@@H]1CCn2cc(nn2)COC[C@H](Cc2ccccc2)NC(=O)[C@H](C)CCn2cc(nn2)COC[C@H](Cc2ccccc2)NC1=O | inactive
Cc1cc(C(=O)Nc2cccc3c2O[C@@H](CN(C)S(=O)(=O)c2cn(C)cn2)[C@H](C)CN([C@H](C)CO)C3=O)n(C)n1 | inactive
CN(C)CCN1C[C@@H]2CN(C(=O)c3cnc[nH]3)C[C@H]2C1=O | inactive
C[C@@H]1CCCCO[C@H](CN(C)C(=O)Nc2ccc3c(c2)OCO3)[C@@H](C)CN([C@H](C)CO)C(=O)c2cc(NC(=O)CCC(F)(F)F)ccc2O1 | inactive
C[C@@H]1CN([C@H](C)CO)C(=O)Cc2cc(NS(C)(=O)=O)ccc2O[C@@H]1CN(C)C(=O)Nc1ccc(C(F)(F)F)cc1 | inactive
Cl.OC(c1cc(C(F)(F)F)nc2c(C(F)(F)F)cccc12)C1CCCCN1 (stereo not drawn) | active
CC(C)/C(=N/O)c1ccccc1 | inactive
